Assay: Amidase activity against BAPNA of chromatographic pools, with or without cysteine (Example 8)
Assay type: biochemical
Protocol: Amidase activity was measured using N-L-Benzoyl-DL-Arginine-p-nitro-anilide (BAPNA) as the substrate. • a. ASSAY METHOD N° 1 : SMITH ASSAY : The sample is added to "Buffer 1", aqueous sodium phosphate buffer (100 mM), pH 6.0 containing EDTA (1 mM) and Cysteine hydrochloride monohydrate (10 mM), to a final volume of 1.0 ml. The enzyme (where present in the sample) is allowed to activate for 5 minutes at 37°C before the reaction is started by the addition of 4 ml of BAPNA (1.25 mM) substrate solution preheated to 37°C. Substrate solution is prepared by dissolving 300 mg BAPNA in warm dimethylsulfoxide, adding the solution slowly to 450 ml Buffer 1 preheated to 37°C and the making up to 500 ml with further Buffer 1. […] Released 4-nitroaniline is determined by measurement of ΔA₄₁₀. […] Released 4-nitroaniline is determined by measurement of ΔA₄₁₀. […] ASSAY METHODS N° 3 : The sample to be analyzed (x ml) is preincubated at 40°C for 10 minutes with (1.8-x) ml of the activation buffer which contains phosphate, citrate and borate 100 mM each in addition to 25 mM L-Cysteine and 15 mM EDTA (pH 6.8). […] The release of 4-nitroaniline is determined spectrophotometrically using ε 410 = 8800 M⁻¹.cm⁻¹, x being chosen so that ΔA₄₁₀ after 15 minutes never exceeded 0.80. […] The specific activity is expressed as the number of units per mg of protein. […]

activity against BAPNA (cysteine omitted): inactive
activity against BAPNA (cysteine present): active
B1: pool I: first pool of Figure 6A: chymopapain species with covalently linked PEG (conjugate, UniProt P14080 135-352, looked up)
Chymopapain: YPQSIDWRAKGAVTPVKNQGACGSCWAFSTIATVEGINKIVTGNLLELSEQELVDCDKHSYGCKGGYQTTSLQYVANNGVHTSKVYPYQAKQYKCRATDKPGPKVKITGYKRVPSNCETSFLGALANQPLSVLVEAGGKPFQLYKSGVFDGPCGTKLDHAVTAVGYGTSDGKNYIIIKNSWGPNWGEKGYMRLKRQSGNSQGTCGVYKSSYYPFKGFA
modifications: PEG

Reference: EP0622394A1, “Reversible modification of sulfur-containing molecules with polyalkylene glycol derivatives and their use” (S.A. LABORATOIRES S.M.B., priority 1993, dated 1994)
